# Measured values from the supplement of paper PMC8728848.
# The other results are listed elsewhere or left out.
# Legend:
# Experiment in all cases: glycan array binding signal (z-score within array); higher = stronger binding
# Conditions in all cases: glycan notation: IUPAC condensed, linker removed
# [1] = molecular target: Gal3S(b1-3)[Fuc(a1-4)]GlcNAc
# Outline: (§1)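 Glycan array binding is given as a within-array Z-score, which can be read as non-binding when negative. The arrays, 3228 of them, came from the Consortium for Functional Glycomics database and were retained only where the protein sequence was available. Z-scores were averaged across arrays of the same protein sequence at different concentrations or buffers and across linkers.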
# Gal3S(b1-4)Glc = molecular target: Gal3S(b1-4)Glc
# Outline: as §1
# Gal3S(b1-4)Glc6S = molecular target: Gal3S(b1-4)Glc6S
# Outline: as §1
# Gal3S(b1-4)GlcNAc = molecular target: Gal3S(b1-4)GlcNAc
# Outline: as §1
# [2] = molecular target: Gal3S(b1-4)[Fuc(a1-3)]Glc6S
# Outline: as §1
# [3] = molecular target: Gal3S(b1-4)[Fuc(a1-3)]GlcNAc
# Outline: as §1
# [4] = molecular target: Gal3S(b1-4)[Fuc(a1-3)]GlcNAc6S
# Outline: as §1
# Gal3S4S(b1-4)GlcNAc = molecular target: Gal3S4S(b1-4)GlcNAc
# Outline: as §1
# Gal3S6S(b1-4)GlcNAc = molecular target: Gal3S6S(b1-4)GlcNAc
# Outline: as §1
# Gal3S6S(b1-4)GlcNAc6S = molecular target: Gal3S6S(b1-4)GlcNAc6S
# Outline: as §1
# Gal4S(b1-4)GlcNAc = molecular target: Gal4S(b1-4)GlcNAc
# Outline: as §1
# Gal4S6S(b1-4)GlcNAc = molecular target: Gal4S6S(b1-4)GlcNAc
# Outline: as §1
# Gal6P(b1-4)GlcNAc = molecular target: Gal6P(b1-4)GlcNAc
# Outline: as §1
# Gal6S(b1-3)GlcNAc = molecular target: Gal6S(b1-3)GlcNAc
# Outline: as §1
# Gal6S(b1-3)GlcNAc6S = molecular target: Gal6S(b1-3)GlcNAc6S
# Outline: as §1
# Gal6S(b1-4)Glc = molecular target: Gal6S(b1-4)Glc
# Outline: as §1
# Gal6S(b1-4)Glc6S = molecular target: Gal6S(b1-4)Glc6S
# Outline: as §1
# Gal6S(b1-4)GlcNAc = molecular target: Gal6S(b1-4)GlcNAc
# Outline: as §1
# Gal6S(b1-4)GlcNAc6S = molecular target: Gal6S(b1-4)GlcNAc6S
# Outline: as §1
# GalNAc(a1-3)Gal = molecular target: GalNAc(a1-3)Gal
# Outline: as §1
# GalNAc(a1-3)GalNAc = molecular target: GalNAc(a1-3)GalNAc
# Outline: as §1
# [5] = molecular target: GalNAc(a1-3)GalNAc(b1-3)Gal(a1-4)Gal(b1-4)Glc
# Outline: as §1
# [6] = molecular target: GalNAc(a1-3)GalNAc(b1-3)Gal(a1-4)Gal(b1-4)GlcNAc
# Outline: as §1
# GalNAc(b1-3)Gal = molecular target: GalNAc(b1-3)Gal
# Outline: as §1
# [7] = molecular target: GalNAc(b1-3)Gal(a1-4)Gal(b1-4)GlcNAc
# Outline: as §1
# [8] = molecular target: GalNAc(b1-3)Gal(a1-4)Gal(b1-4)GlcNAc(b1-3)Gal(b1-4)Glc
# Outline: as §1
# [9] = molecular target: GalNAc(b1-3)Gal(a1-6)Gal(b1-4)Glc
# Outline: as §1
# GalNAc(b1-3)GalNAc = molecular target: GalNAc(b1-3)GalNAc
# Outline: as §1
# GalNAc(b1-3)GlcNAc = molecular target: GalNAc(b1-3)GlcNAc
# Outline: as §1
# GalNAc(b1-4)Gal(b1-4)Glc = molecular target: GalNAc(b1-4)Gal(b1-4)Glc
# Outline: as §1
# GalNAc(b1-4)GlcNAc = molecular target: GalNAc(b1-4)GlcNAc
# Outline: as §1
# [10] = molecular target: GalNAc(b1-4)GlcNAc(b1-2)Man
# Outline: as §1
# [11] = molecular target: GalNAc(b1-4)GlcNAc(b1-2)Man(a1-3)[GalNAc(b1-4)GlcNAc(b1-2)Man(a1-6)]Man(b1-4)GlcNAc(b1-4)GlcNAc
# Outline: as §1
# [12] = molecular target: GalNAc(b1-4)GlcNAc(b1-3)GalNAc(b1-4)GlcNAc
# Outline: as §1
# GalNAc(b1-4)GlcNAc6S = molecular target: GalNAc(b1-4)GlcNAc6S
# Outline: as §1
# GalNAc(b1-6)GalNAc = molecular target: GalNAc(b1-6)GalNAc
# Outline: as §1
# GalNAc3S(b1-4)GlcNAc = molecular target: GalNAc3S(b1-4)GlcNAc
# Outline: as §1
# GalNAc3S(b1-4)GlcNAc3S = molecular target: GalNAc3S(b1-4)GlcNAc3S
# Outline: as §1
# [13] = molecular target: GalNAc3S(b1-4)[Fuc(a1-3)]GlcNAc
# Outline: as §1
# GalNAc4S6S(b1-4)GlcNAc = molecular target: GalNAc4S6S(b1-4)GlcNAc
# Outline: as §1
# GalNAc6S(b1-4)GlcNAc = molecular target: GalNAc6S(b1-4)GlcNAc
# Outline: as §1
# Glc(a1-4)Glc = molecular target: Glc(a1-4)Glc
# Outline: as §1
# [14] = molecular target: Glc(a1-4)Glc(a1-4)Glc(a1-4)Glc
# Outline: as §1
# Glc(a1-6)Glc(a1-6)Glc = molecular target: Glc(a1-6)Glc(a1-6)Glc
# Outline: as §1
# [15] = molecular target: Glc(a1-6)Glc(a1-6)Glc(a1-6)Glc
# Outline: as §1
binder,measurement,setting,value
Als3-41 (Candida albicans) (protein) KTITGVFNSFNSLTWSNAATYNYKGPGTPTWNAVLGWSLDGTSASPGDTFTLNMPCVFKFTTSQTSVDLTAHGVKYATCQFQAGEEFMTFSTLTCTVSNTLTPSIKALGTVTLPLAFNVGGTGSSVDLEDSKCFTAGTNTVTFNDGGKKISINVDFERSNVDPKGYLTDSRVIPSLNKVSTLFVAPQCANGYTSGTMGFANTYGDVQIDCSNIHVGITKGLNDWNYPVSSESFSYTKTCSSNGIFITYKNVPAGYRPFVDAYISATDVNSYTLSYANEYTCAGGYWQRAPFTLRWTGYRNSDAGSNGIVIVATTRTVTDSTTAVTTLPFDPNRDKTKTIEILKPIPTTTITTSYVGVTTSYLTKTAPIGETATVIVD,glycan array binding signal (z-score),[1],-0.139
same,glycan array binding signal (z-score),Gal3S(b1-4)Glc,-0.112
same,glycan array binding signal (z-score),Gal3S(b1-4)Glc6S,-0.151
same,glycan array binding signal (z-score),Gal3S(b1-4)GlcNAc,-0.21
same,glycan array binding signal (z-score),[2],0.781
same,glycan array binding signal (z-score),[3],-0.184
same,glycan array binding signal (z-score),[4],-0.263
same,glycan array binding signal (z-score),Gal3S4S(b1-4)GlcNAc,0.028
same,glycan array binding signal (z-score),Gal3S6S(b1-4)GlcNAc,-0.266
same,glycan array binding signal (z-score),Gal3S6S(b1-4)GlcNAc6S,0.032
same,glycan array binding signal (z-score),Gal4S(b1-4)GlcNAc,-0.256
same,glycan array binding signal (z-score),Gal4S6S(b1-4)GlcNAc,-0.211
same,glycan array binding signal (z-score),Gal6P(b1-4)GlcNAc,-0.262
same,glycan array binding signal (z-score),Gal6S(b1-3)GlcNAc,0.164
same,glycan array binding signal (z-score),Gal6S(b1-3)GlcNAc6S,-0.02
same,glycan array binding signal (z-score),Gal6S(b1-4)Glc,-0.239
same,glycan array binding signal (z-score),Gal6S(b1-4)Glc6S,0.012
same,glycan array binding signal (z-score),Gal6S(b1-4)GlcNAc,-0.24
same,glycan array binding signal (z-score),Gal6S(b1-4)GlcNAc6S,0.056
same,glycan array binding signal (z-score),GalNAc(a1-3)Gal,0.029
same,glycan array binding signal (z-score),GalNAc(a1-3)GalNAc,-0.204
same,glycan array binding signal (z-score),[5],-0.24
same,glycan array binding signal (z-score),[6],-0.316
same,glycan array binding signal (z-score),GalNAc(b1-3)Gal,0.11
same,glycan array binding signal (z-score),[7],0.222
same,glycan array binding signal (z-score),[8],-0.243
same,glycan array binding signal (z-score),[9],-0.157
same,glycan array binding signal (z-score),GalNAc(b1-3)GalNAc,-0.345
same,glycan array binding signal (z-score),GalNAc(b1-3)GlcNAc,0.038
same,glycan array binding signal (z-score),GalNAc(b1-4)Gal(b1-4)Glc,-0.103
same,glycan array binding signal (z-score),GalNAc(b1-4)GlcNAc,0.551
same,glycan array binding signal (z-score),[10],0.183
same,glycan array binding signal (z-score),[11],-0.16
same,glycan array binding signal (z-score),[12],1.43
same,glycan array binding signal (z-score),GalNAc(b1-4)GlcNAc6S,1.79
same,glycan array binding signal (z-score),GalNAc(b1-6)GalNAc,-0.119
same,glycan array binding signal (z-score),GalNAc3S(b1-4)GlcNAc,0.076
same,glycan array binding signal (z-score),GalNAc3S(b1-4)GlcNAc3S,-0.178
same,glycan array binding signal (z-score),[13],-0.27
same,glycan array binding signal (z-score),GalNAc4S6S(b1-4)GlcNAc,-0.299
same,glycan array binding signal (z-score),GalNAc6S(b1-4)GlcNAc,0.078
same,glycan array binding signal (z-score),Glc(a1-4)Glc,-0.195
same,glycan array binding signal (z-score),[14],0.066
same,glycan array binding signal (z-score),Glc(a1-6)Glc(a1-6)Glc,-0.177
same,glycan array binding signal (z-score),[15],-0.092
